# Reference: the supplement of paper PMC8728848
# This is one part of the list.
# B1: Gal 8 (Homo sapiens) (protein)
# chain: MLSLNNLQNIIYNPVIPYVGTIPDQLDPGTLIVICGHVPSDADRFQVDLQNGSSVKPRADVAFHFNPRFKRAGCIVCNTLINEKWGREEITYDTPFKREKSFEIVIMVLKDKFQVAVNGKHTLLYGHRIGPEKIDTLGIYGKVNIHSIGFSFSSDLQSTQASSLELTEISRENVPKSGTPQLQTVSPSWDLQGHGSETFCSVLWTRVFLEIAFCRPIGLTVASFQSLPFAARLNTPMGPGRTVVVKGEVNANAKSFNVDLLAGKSKDIALHLNPRLNIKAFVRNSFLQESWGEEERNITSFPFSPGMYFEMIIYCDVREFKVAVNGVHSLEYKHRFKELSSIDTLEINGDIHLLEVRSW
# Key:
# Assay in all cases: glycan array binding signal (z-score within array); higher = stronger binding
# Conditions in all cases: glycan notation: IUPAC condensed, linker removed
# [1] = target: Neu5Ac(a2-3)GalNAc(b1-4)GlcNAc
# In short: (§1)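 From the Consortium for Functional Glycomics database, 3228 arrays were curated, keeping only those whose protein sequence was available. Binding is given as a within-array Z-score averaged across arrays sharing a protein sequence and across linkers. Negative Z-scores can be read as non-binding.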
# [2] = target: Neu5Ac(a2-3)[GalNAc(b1-4)]Gal(b1-4)Glc
# In short: as §1
# [3] = target: Neu5Ac(a2-3)[GalNAc(b1-4)]Gal(b1-4)GlcNAc
# In short: as §1
# [4] = target: Neu5Ac(a2-3)[GalNAc(b1-4)]Gal(b1-4)GlcNAc(b1-3)GalNAc
# In short: as §1
# [5] = target: Neu5Ac(a2-3)[Neu5Ac(a2-6)]GalNAc
# In short: as §1
# Neu5Ac(a2-6)Gal = target: Neu5Ac(a2-6)Gal
# In short: as §1
# [6] = target: Neu5Ac(a2-6)Gal(b1-3)GlcNAc(b1-3)[Gal(b1-4)GlcNAc(b1-6)]Gal(b1-4)Glc
# In short: as §1
# Neu5Ac(a2-6)Gal(b1-4)Glc = target: Neu5Ac(a2-6)Gal(b1-4)Glc
# In short: as §1
# [7] = target: Neu5Ac(a2-6)Gal(b1-4)GlcNAc
# In short: as §1
# [8] = target: Neu5Ac(a2-6)Gal(b1-4)GlcNAc(b1-2)Man
# In short: as §1
# [9] = target: Neu5Ac(a2-6)Gal(b1-4)GlcNAc(b1-2)Man(a1-3)Man(b1-4)GlcNAc(b1-4)GlcNAc
# In short: as §1
# [10] = target: Neu5Ac(a2-6)Gal(b1-4)GlcNAc(b1-2)Man(a1-3)[Gal(b1-4)GlcNAc(b1-2)Man(a1-6)]Man(b1-4)GlcNAc(b1-4)GlcNAc
# In short: as §1
# [11] = target: Neu5Ac(a2-6)Gal(b1-4)GlcNAc(b1-2)Man(a1-3)[GlcNAc(b1-2)Man(a1-6)]Man(b1-4)GlcNAc(b1-4)GlcNAc
# In short: as §1
# [12] = target: Neu5Ac(a2-6)Gal(b1-4)GlcNAc(b1-2)Man(a1-3)[GlcNAc(b1-2)Man(b1-4)GlcNAc(b1-2)Man(a1-6)]Man(b1-4)GlcNAc(b1-4)GlcNAc
# In short: as §1
# [13] = target: Neu5Ac(a2-6)Gal(b1-4)GlcNAc(b1-2)Man(a1-3)[GlcNAc(b1-4)][Neu5Ac(a2-6)Gal(b1-4)GlcNAc(b1-2)Man(a1-6)]Man(b1-4)GlcNAc(b1-4)GlcNAc
# In short: as §1
# [14] = target: Neu5Ac(a2-6)Gal(b1-4)GlcNAc(b1-2)Man(a1-3)[Man(a1-6)]Man(b1-4)GlcNAc(b1-4)GlcNAc
# In short: as §1
# [15] = target: Neu5Ac(a2-6)Gal(b1-4)GlcNAc(b1-2)Man(a1-3)[Neu5Ac(a2-3)Gal(b1-4)GlcNAc(b1-2)Man(a1-6)]Man(b1-4)GlcNAc(b1-4)GlcNAc
# In short: as §1
# [16] = target: Neu5Ac(a2-6)Gal(b1-4)GlcNAc(b1-2)Man(a1-3)[Neu5Ac(a2-6)Gal(b1-4)GlcNAc(b1-2)Man(a1-6)]Man(b1-4)GlcNAc(b1-4)GlcNAc
# In short: as §1
# [17] = target: Neu5Ac(a2-6)Gal(b1-4)GlcNAc(b1-2)Man(a1-3)[Neu5Ac(a2-6)Gal(b1-4)GlcNAc(b1-2)Man(a1-6)]Man(b1-4)GlcNAc(b1-4)[Fuc(a1-6)]GlcNAc
# In short: as §1
# [18] = target: Neu5Ac(a2-6)Gal(b1-4)GlcNAc(b1-2)Man(a1-6)Man(b1-4)GlcNAc(b1-4)GlcNAc
# In short: as §1
# [19] = target: Neu5Ac(a2-6)Gal(b1-4)GlcNAc(b1-2)Man(a1-6)[Gal(b1-4)GlcNAc(b1-2)Man(a1-3)]Man(b1-4)GlcNAc(b1-4)GlcNAc
# In short: as §1
# [20] = target: Neu5Ac(a2-6)Gal(b1-4)GlcNAc(b1-2)Man(a1-6)[GlcNAc(b1-2)Man(a1-3)]Man(b1-4)GlcNAc(b1-4)GlcNAc
# In short: as §1
# [21] = target: Neu5Ac(a2-6)Gal(b1-4)GlcNAc(b1-2)Man(a1-6)[Man(a1-3)]Man(b1-4)GlcNAc(b1-4)GlcNAc
# In short: as §1
# [22] = target: Neu5Ac(a2-6)Gal(b1-4)GlcNAc(b1-2)[Neu5Ac(a2-6)Gal(b1-4)GlcNAc(b1-4)]Man(a1-3)[GlcNAc(b1-4)][Neu5Ac(a2-6)Gal(b1-4)GlcNAc(b1-2)[Neu5Ac(a2-6)Gal(b1-4)GlcNAc(b1-6)]Man(a1-6)]Man(b1-4)GlcNAc(b1-4)GlcNAc
# In short: as §1
# [23] = target: Neu5Ac(a2-6)Gal(b1-4)GlcNAc(b1-2)[Neu5Ac(a2-6)Gal(b1-4)GlcNAc(b1-4)]Man(a1-3)[GlcNAc(b1-4)][Neu5Ac(a2-6)Gal(b1-4)GlcNAc(b1-4)Man(a1-6)]Man(b1-4)GlcNAc(b1-4)GlcNAc
# In short: as §1
# [24] = target: Neu5Ac(a2-6)Gal(b1-4)GlcNAc(b1-2)[Neu5Ac(a2-6)Gal(b1-4)GlcNAc(b1-6)]Man(a1-6)[Neu5Ac(a2-6)Gal(b1-4)GlcNAc(b1-2)Man(a1-3)][GlcNAc(b1-4)]Man(b1-4)GlcNAc(b1-4)GlcNAc
# In short: as §1
# [25] = target: Neu5Ac(a2-6)Gal(b1-4)GlcNAc(b1-3)Gal(b1-3)GlcNAc
# In short: as §1
# [26] = target: Neu5Ac(a2-6)Gal(b1-4)GlcNAc(b1-3)Gal(b1-4)GlcNAc
# In short: as §1
# [27] = target: Neu5Ac(a2-6)Gal(b1-4)GlcNAc(b1-3)Gal(b1-4)GlcNAc(b1-2)Man(a1-3)[Neu5Ac(a2-6)Gal(b1-4)GlcNAc(b1-3)Gal(b1-4)GlcNAc(b1-2)Man(a1-6)]GalNAc
# In short: as §1
# [28] = target: Neu5Ac(a2-6)Gal(b1-4)GlcNAc(b1-3)Gal(b1-4)GlcNAc(b1-3)Gal(b1-4)GlcNAc
# In short: as §1
# [29] = target: Neu5Ac(a2-6)Gal(b1-4)GlcNAc(b1-3)Gal(b1-4)GlcNAc(b1-3)Gal(b1-4)GlcNAc(b1-2)Man(a1-3)[Neu5Ac(a2-6)Gal(b1-4)GlcNAc(b1-3)Gal(b1-4)GlcNAc(b1-3)Gal(b1-4)GlcNAc(b1-2)Man(a1-6)]GalNAc
# In short: as §1
# [30] = target: Neu5Ac(a2-6)Gal(b1-4)GlcNAc(b1-3)Gal(b1-4)GlcNAc(b1-3)GalNAc
# In short: as §1
# [31] = target: Neu5Ac(a2-6)Gal(b1-4)GlcNAc(b1-3)Gal(b1-4)GlcNAc(b1-3)[Neu5Ac(a2-6)Gal(b1-4)GlcNAc(b1-3)Gal(b1-4)GlcNAc(b1-6)]GalNAc
# In short: as §1
# [32] = target: Neu5Ac(a2-6)Gal(b1-4)GlcNAc(b1-3)Gal(b1-4)GlcNAc(b1-6)[Gal(b1-3)]GalNAc
# In short: as §1
# [33] = target: Neu5Ac(a2-6)Gal(b1-4)GlcNAc(b1-3)Gal(b1-4)[Fuc(a1-3)]GlcNAc(b1-3)Gal(b1-4)[Fuc(a1-3)]GlcNAc
# In short: as §1
# [34] = target: Neu5Ac(a2-6)Gal(b1-4)GlcNAc(b1-3)GalNAc
# In short: as §1
# [35] = target: Neu5Ac(a2-6)Gal(b1-4)GlcNAc(b1-3)[Neu5Ac(a2-6)Gal(b1-4)GlcNAc(b1-6)]GalNAc
# In short: as §1
# [36] = target: Neu5Ac(a2-6)Gal(b1-4)GlcNAc(b1-6)GalNAc
# In short: as §1
binder,measurement,setting,value
B1,glycan array binding signal (z-score),[1],-0.021
same,glycan array binding signal (z-score),[2],-0.4
same,glycan array binding signal (z-score),[3],-0.382
same,glycan array binding signal (z-score),[4],-0.354
same,glycan array binding signal (z-score),[5],-0.404
same,glycan array binding signal (z-score),Neu5Ac(a2-6)Gal,-0.391
same,glycan array binding signal (z-score),[6],-0.356
same,glycan array binding signal (z-score),Neu5Ac(a2-6)Gal(b1-4)Glc,0.145
same,glycan array binding signal (z-score),[7],-0.383
same,glycan array binding signal (z-score),[8],-0.357
same,glycan array binding signal (z-score),[9],-0.356
same,glycan array binding signal (z-score),[10],-0.355
same,glycan array binding signal (z-score),[11],-0.361
same,glycan array binding signal (z-score),[12],-0.258
same,glycan array binding signal (z-score),[13],-0.358
same,glycan array binding signal (z-score),[14],-0.358
same,glycan array binding signal (z-score),[15],-0.351
same,glycan array binding signal (z-score),[16],-0.354
same,glycan array binding signal (z-score),[17],-0.356
same,glycan array binding signal (z-score),[18],-0.357
same,glycan array binding signal (z-score),[19],-0.351
same,glycan array binding signal (z-score),[20],-0.037
same,glycan array binding signal (z-score),[21],-0.357
same,glycan array binding signal (z-score),[22],-0.358
same,glycan array binding signal (z-score),[23],-0.358
same,glycan array binding signal (z-score),[24],-0.357
same,glycan array binding signal (z-score),[25],2.01
same,glycan array binding signal (z-score),[26],0.539
same,glycan array binding signal (z-score),[27],1.46
same,glycan array binding signal (z-score),[28],0.504
same,glycan array binding signal (z-score),[29],0.661
same,glycan array binding signal (z-score),[30],-0.145
same,glycan array binding signal (z-score),[31],-0.166
same,glycan array binding signal (z-score),[32],-0.068
same,glycan array binding signal (z-score),[33],-0.378
same,glycan array binding signal (z-score),[34],-0.355
same,glycan array binding signal (z-score),[35],-0.357
same,glycan array binding signal (z-score),[36],-0.357
